The target of assay [1] is CHASE4_PASPAC (IsmP^1-413), bacterial two-hybrid fusion (Pseudomonas aeruginosa PAO1) (UniProt Q9I243). Description: two-hybrid; bacterial two-hybrid (BTH kit, EUROMEDEX): pKT25 and pUT18C plasmids in E. coli BTH101, LB agar with 1 mM IPTG and X-Gal, 30 °C, 24 h; blue colonies, β-galactosidase activity in Miller units.
The target of assay [2] is IsmP (iron-sensing membrane protein, PA2072), full length, bacterial two-hybrid fusion (Pseudomonas aeruginosa PAO1) (UniProt Q9I243). The description is as above.
Assay [3] has as its target PA0847, bacterial two-hybrid fusion (Pseudomonas aeruginosa PAO1) (UniProt Q9I594). Described as above.
The target in assay [4] is IsmP-Flag (Pseudomonas aeruginosa PAO1) (UniProt Q9I243). Description: pull-down; IsmP-Flag co-expressed with ImcA-eGFP in PAO1; supernatant of lysate (50 mM Tris-HCl pH 8.0, 150 mM NaCl, 0.1% Triton X-100) with Flag beads 2 h at 4 °C; western blot.
Assay [5] concerns the target PA2072^His protein (purified IsmP) (Pseudomonas aeruginosa PAO1) (UniProt Q9I243). The assay can be described thus: SEC; protein co-purification of IsmP and ImcA and SEC, in detergent DDM.
The target is the same in assay [6]. The assay can be described thus: MST; PA2072^His (100 nM) labelled by a His-tag labeling kit, PBST buffer; PA1851 protein (200 nM) serially diluted; NanoTemper Monolith NT.115, 100% LED power, high MST power; both purified.

Chains of the proteins cited; added tags and fusions are not shown. Lines headed by an entry give the natural chain unless they say otherwise; changes in a name come on top. Residues count along the entry.
UniProt Q9I243: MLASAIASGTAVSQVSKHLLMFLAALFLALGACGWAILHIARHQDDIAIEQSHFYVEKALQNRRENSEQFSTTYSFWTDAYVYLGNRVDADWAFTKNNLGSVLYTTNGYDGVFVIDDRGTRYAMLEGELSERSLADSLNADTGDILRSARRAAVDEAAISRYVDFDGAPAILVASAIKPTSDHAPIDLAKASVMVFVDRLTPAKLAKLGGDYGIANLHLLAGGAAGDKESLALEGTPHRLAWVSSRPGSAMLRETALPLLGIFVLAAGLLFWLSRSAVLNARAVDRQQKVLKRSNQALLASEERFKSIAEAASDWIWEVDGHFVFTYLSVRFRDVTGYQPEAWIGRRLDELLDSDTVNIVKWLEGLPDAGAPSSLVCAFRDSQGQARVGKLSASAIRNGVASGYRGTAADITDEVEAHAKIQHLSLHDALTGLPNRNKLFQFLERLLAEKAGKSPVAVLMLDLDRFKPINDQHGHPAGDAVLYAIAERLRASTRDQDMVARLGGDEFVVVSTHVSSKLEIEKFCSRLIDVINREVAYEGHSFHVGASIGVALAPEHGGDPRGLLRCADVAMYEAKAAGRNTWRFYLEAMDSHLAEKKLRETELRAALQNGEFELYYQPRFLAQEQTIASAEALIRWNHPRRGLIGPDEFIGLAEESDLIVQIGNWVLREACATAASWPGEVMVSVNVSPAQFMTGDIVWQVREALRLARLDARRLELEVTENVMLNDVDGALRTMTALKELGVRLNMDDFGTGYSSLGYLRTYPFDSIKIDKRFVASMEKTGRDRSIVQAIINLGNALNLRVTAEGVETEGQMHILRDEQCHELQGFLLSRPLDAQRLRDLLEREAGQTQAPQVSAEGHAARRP
CHASE4_PASPAC (IsmP^1-413), bacterial two-hybrid fusion: residues 1-413 of Q9I243

These are yes or no findings as the source states them, for the method shown. For part of these data: In cells and extracts the contact can be indirect. Some results given as binding are weak or reduced against the parent protein; the word gives no strength. For part of these data: Tags and fused reporters may be left off the sequences shown.

B1: ImcA (iron modulator of c-di-GMP A, PA1851), full length, bacterial two-hybrid fusion (protein, UniProt Q9I2P4 1-401)
chain: MLARDSLVQAGLPDNPYARQLRNGFRWLRFEKELENEFREFLSWNSLMQRRAAIGVAFLIWALFIVADWMMVDIRLHPSLFEQLLGVRLGMIGLLLVVWPAAFLPSLRKVGDAIAPYCLLLINLAVLACDVLFEWHGVPRFTQLGATLGILAVFFPLGLAFWACVRLALLCLALNLAVFLLFGGEENLRTNLLNTLYNGLVVLICSFALYLQDYAQREQFLGRRLLGMMAEQDSLTGLVNRRYYELLAQRALEQGAREEKGVALILVDVDDFKAYNDHYGHPAGDAALRQLGVVLRQGARRPLDIAARLGGEEFAVLLYDSEEGNTLAIAERLRQAVEALGIEHLGSSAGPCLTISLGVAYSTSGMGLDALYREADRALYEAKDAGRNAVRVAFRQHDRLE
With B1, the binding result is listed as “binds” in assay [1], “binds” in assay [2] and “no binding” in assay [3].

B2: ImcA-eGFP (protein, UniProt Q9I2P4 1-401)
chain: MLARDSLVQAGLPDNPYARQLRNGFRWLRFEKELENEFREFLSWNSLMQRRAAIGVAFLIWALFIVADWMMVDIRLHPSLFEQLLGVRLGMIGLLLVVWPAAFLPSLRKVGDAIAPYCLLLINLAVLACDVLFEWHGVPRFTQLGATLGILAVFFPLGLAFWACVRLALLCLALNLAVFLLFGGEENLRTNLLNTLYNGLVVLICSFALYLQDYAQREQFLGRRLLGMMAEQDSLTGLVNRRYYELLAQRALEQGAREEKGVALILVDVDDFKAYNDHYGHPAGDAALRQLGVVLRQGARRPLDIAARLGGEEFAVLLYDSEEGNTLAIAERLRQAVEALGIEHLGSSAGPCLTISLGVAYSTSGMGLDALYREADRALYEAKDAGRNAVRVAFRQHDRLE
Turning to B2, in assay [4], the binding entry was “binds”.

B3: PA1851 protein (purified ImcA) (protein, UniProt Q9I2P4 1-401)
chain: MLARDSLVQAGLPDNPYARQLRNGFRWLRFEKELENEFREFLSWNSLMQRRAAIGVAFLIWALFIVADWMMVDIRLHPSLFEQLLGVRLGMIGLLLVVWPAAFLPSLRKVGDAIAPYCLLLINLAVLACDVLFEWHGVPRFTQLGATLGILAVFFPLGLAFWACVRLALLCLALNLAVFLLFGGEENLRTNLLNTLYNGLVVLICSFALYLQDYAQREQFLGRRLLGMMAEQDSLTGLVNRRYYELLAQRALEQGAREEKGVALILVDVDDFKAYNDHYGHPAGDAALRQLGVVLRQGARRPLDIAARLGGEEFAVLLYDSEEGNTLAIAERLRQAVEALGIEHLGSSAGPCLTISLGVAYSTSGMGLDALYREADRALYEAKDAGRNAVRVAFRQHDRLE
With B3, the binding result in assay [5] and in assay [6] was “binds” throughout.

For the origin of these results see paper PMC10904736, “A c-di-GMP signaling module controls responses to iron in Pseudomonas aeruginosa” (Nature Communications, 2024).
